{"source": "the supplement of paper PMC9446081", "note": "Out of some 39,000 compounds screened, about 220 (0.56%) showed activity. The list shows a part of the results.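 Also: static incubation at 37 °C against the wild-type strain, values averaged over two biological replicates.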", "data": [{"tested_on": "Escherichia coli K-12 BW25113", "experiment": "relative growth (OD600 normalised to plate interquartile mean) (fraction); higher = less growth inhibition, active = 0.2 or less", "details": "50 µM; LB; incubation time: overnight (16-24 h)", "values": [{"smiles": "CCOC(=O)c1cc2c(c(-c3cccc(-c4cccc(F)c4)c3)n1)[C@H](CCO)N(S(=O)C(C)(C)C)C2", "note": "(stereo not given in full)", "relative growth": "inactive: 1.01"}, {"smiles": "CCCc1ccc2c(c1)CNCCC2", "relative growth": "inactive: 1"}, {"smiles": "CC12CCC(=O)C=C1CCC1C2C(=O)CC2(C)C1CCC2(O)C(=O)CO", "note": "(stereo not given)", "relative growth": "inactive: 1.03"}, {"smiles": "CCO[C@@H]1OC(C(=O)N2CCCCCCC2)=C[C@H](c2coc3ccccc3c2=O)[C@H]1CCCOC(=O)NCCCCCC(=O)NO", "relative growth": "inactive: 1.01"}, {"smiles": "C[C@@H]1CN([C@@H](C)CO)C(=O)c2cccc(NC(=O)CCCCCC(=O)Nc3ccccc3N)c2O[C@H]1CN(C)Cc1ccc(C(F)(F)F)cc1", "relative growth": "inactive: 1.01"}, {"smiles": "COc1ccc(S(=O)(=O)Nc2ccc3c(c2)C(=O)N([C@@H](C)CO)C[C@@H](C)[C@@H](CN(C)S(=O)(=O)c2ccc(Cl)cc2)OCCCC[C@@H](C)O3)cc1", "relative growth": "inactive: 1.01"}, {"smiles": "CC(=O)N(C)C[C@@H]1Oc2cc(C#CCN(C)C)ccc2S(=O)(=O)N([C@@H](C)CO)C[C@@H]1C", "relative growth": "inactive: 0.991"}, {"smiles": "CN(C)C(=O)C[C@H]1C=C[C@@H](NC(=O)C2CC2)[C@H](CO)O1", "relative growth": "inactive: 0.999"}, {"smiles": "CCS(=O)(=O)N1C[C@]2(CN(C2)C(=O)Nc2c(noc2C)C)c2c([nH]c3cc(ccc23)OC)[C@@H]1CO", "relative growth": "inactive: 0.987"}, {"smiles": "CCNC(=O)C[C@H]1C=C[C@@H](NC(=O)C2CC2)[C@@H](CO)O1", "relative growth": "inactive: 1.01"}, {"smiles": "COCC#Cc1cnc2c(c1)C(=O)N([C@@H](C)CO)C[C@@H](C)[C@H](CN(C)C(=O)Nc1ccc(OC)cc1)O2", "relative growth": "inactive: 1"}, {"smiles": "C[C@@H]1CN([C@@H](C)CO)C(=O)c2cccc(NS(=O)(=O)c3ccccc3)c2O[C@@H]1CN(C)S(C)(=O)=O", "relative growth": "inactive: 1.01"}, {"smiles": "Cc1ccc(S(=O)(=O)N(C)C[C@H]2Oc3ccc(NC(=O)Nc4ccc(C(F)(F)F)cc4)cc3CC(=O)N([C@@H](C)CO)C[C@@H]2C)cc1", "relative growth": "inactive: 0.984"}, {"smiles": "C[C@H]1CN([C@@H](C)CO)C(=O)c2cccc(NS(=O)(=O)c3cccs3)c2O[C@H]1CN(C)S(C)(=O)=O", "relative growth": "inactive: 1.02"}, {"smiles": "Cc1ccc(S(=O)(=O)Nc2ccc3c(c2)C(=O)N([C@H](C)CO)C[C@@H](C)[C@@H](CN(C)C(=O)Cc2ccccc2)OCCCC[C@@H](C)O3)cc1", "relative growth": "inactive: 1.03"}, {"smiles": "COc1cc(N2CCO[C@]3(COCCN(S(C)(=O)=O)C3)C2)ncn1", "relative growth": "inactive: 0.997"}, {"smiles": "O=C1OCC=C[C@H]2O[C@@]34C=CCN(c5ccc(Cl)cc5)C(=O)[C@H]3N(CCCCCCO)C(=O)[C@@H]4[C@@H]12", "relative growth": "inactive: 0.983"}, {"smiles": "O=C(C[C@@H]1CC[C@H]2[C@@H](COC[C@H](O)CN2S(=O)(=O)c2ccccc2)O1)N[C@H]1CCN(Cc2ccccc2)C1", "relative growth": "inactive: 0.999"}, {"smiles": "O=C(C[C@@H]1CC[C@H]2[C@@H](COC[C@@H](O)CN2C(=O)c2ccc3c(c2)OCO3)O1)NC1Cc2ccccc2C1", "relative growth": "inactive: 1.01"}, {"smiles": "C[C@@H]1CN([C@H](C)CO)S(=O)(=O)c2ccc(C#C[C@@H](C)O)cc2O[C@@H]1CN(C)C(=O)C1CCCCC1", "relative growth": "inactive: 0.953"}, {"smiles": "O=C(O)c1oc2ccccc2c1CSc1ccc(Cl)cc1", "relative growth": "inactive: 0.972"}, {"smiles": "C[C@@H]1CN([C@@H](C)CO)S(=O)(=O)c2ccc(C3=CCCC3)cc2O[C@H]1CN(C)S(=O)(=O)c1ccc(F)cc1", "relative growth": "inactive: 1"}, {"smiles": "C[C@@H]1CN([C@@H](C)CO)C(=O)Cc2cc(NC(=O)Cc3cn(C)c4ccccc34)ccc2O[C@@H]1CN(C)C(=O)Nc1cccc2ccccc12", "relative growth": "inactive: 1"}, {"smiles": "Cc1ccccc1S(=O)(=O)N1C[C@H](O)COC[C@H]2O[C@H](CC(=O)NCCc3ccccc3)CC[C@@H]21", "relative growth": "inactive: 0.956"}, {"smiles": "C[C@H]1CN([C@@H](C)CO)C(=O)Cc2cc(NC(=O)Nc3ccc4c(c3)OCO4)ccc2O[C@H]1CN(C)Cc1ccc(-c2ccccc2)cc1", "relative growth": "inactive: 1.01"}, {"smiles": "O=C(C[C@@H]1CC[C@H]2[C@@H](COC[C@@H](O)CN2C(=O)Nc2cccc(F)c2)O1)NCc1ccccc1Cl", "relative growth": "inactive: 1"}, {"smiles": "C[C@@H]1CCCCO[C@@H](CN(C)Cc2ccc(C(=O)O)cc2)[C@H](C)CN([C@@H](C)CO)C(=O)c2cc(NC(=O)Cc3ccccc3)ccc2O1", "relative growth": "inactive: 0.993"}, {"smiles": "CC(=O)O[C@H]1[C@H](O)[C@H](O)[C@H](O[C@@H]2[C@@H](Oc3cc(O)c4c(=O)cc(-c5ccc(O)c(O)c5)oc4c3)O[C@@H](C(=O)O)[C@H](O)[C@@H]2O)O[C@@H]1C", "relative growth": "inactive: 0.986"}, {"smiles": "C[C@@H]1CCCCO[C@@H](CN(C)C(=O)Nc2ccccc2)[C@@H](C)CN([C@@H](C)CO)C(=O)c2cc(NC(=O)C3CCCCC3)ccc2O1", "relative growth": "inactive: 1"}, {"smiles": "C[C@H]1CN([C@@H](C)CO)C(=O)c2cc(NC(=O)Nc3ccc4c(c3)OCO4)ccc2O[C@@H]1CN(C)S(C)(=O)=O", "relative growth": "inactive: 1"}, {"smiles": "C[C@@H]1CCCCO[C@H](CN(C)Cc2ccc(C(F)(F)F)cc2)[C@H](C)CN([C@@H](C)CO)C(=O)c2cc(NS(=O)(=O)c3cn(C)cn3)ccc2O1", "relative growth": "inactive: 0.989"}, {"smiles": "C[C@@H]1CN([C@H](C)CO)C(=O)c2cc(NC(=O)NC3CCCCC3)ccc2O[C@@H]1CN(C)Cc1ccc(C(=O)Nc2ccccc2N)cc1", "relative growth": "inactive: 0.975"}, {"smiles": "C[C@@H]1CN([C@H](C)CO)C(=O)c2cc(NS(=O)(=O)c3ccc(F)cc3)ccc2O[C@@H]1CN(C)Cc1ccncc1", "relative growth": "inactive: 0.995"}, {"smiles": "COc1ccc(S(=O)(=O)N(C)C[C@H]2OCCCC[C@H](C)Oc3ccc(NS(=O)(=O)c4cn(C)cn4)cc3C(=O)N([C@H](C)CO)C[C@@H]2C)cc1", "relative growth": "inactive: 0.998"}, {"smiles": "C[C@@H]1CN([C@@H](C)CO)C(=O)c2cc(/C=C/c3ccccc3)cnc2O[C@H]1CN(C)C(=O)Nc1ccc(C(F)(F)F)cc1", "relative growth": "inactive: 0.974"}, {"smiles": "CCOC(=O)C1CCN(c2cn[nH]c(=O)n2)CC1", "relative growth": "inactive: 0.972"}, {"smiles": "C[C@@H]1CN([C@@H](C)CO)S(=O)(=O)c2ccc(-c3ccc(C(=O)N(C)C)cc3)cc2O[C@H]1CN(C)C(=O)Cc1ccccn1", "relative growth": "inactive: 0.984"}, {"smiles": "C[C@@H]1CN([C@@H](C)CO)C(=O)c2cccc(NC(=O)CCCCCC(=O)Nc3ccccc3N)c2O[C@@H]1CN(C)Cc1ccccc1", "relative growth": "inactive: 0.99"}, {"smiles": "O=C1OCCC=C[C@H]2O[C@@]34C=CCN(c5ccc6ccccc6c5)C(=O)[C@H]3N(CCCCCCO)C(=O)[C@@H]4[C@@H]12", "relative growth": "inactive: 1.01"}, {"smiles": "C[C@@H]1CN([C@@H](C)CO)C(=O)CCCn2cc(nn2)CO[C@H]1CN(C)C(=O)Nc1ccc(N2CCCCC2)cc1", "relative growth": "inactive: 0.986"}, {"smiles": "C[C@@H]1CCCCO[C@H](CN(C)Cc2ccc3c(c2)OCO3)[C@H](C)CN([C@@H](C)CO)C(=O)c2cc(NC(=O)CCC(F)(F)F)ccc2O1", "relative growth": "inactive: 0.995"}, {"smiles": "C[C@H]1CN([C@@H](C)CO)C(=O)c2cccc(NC(=O)C3CC3)c2O[C@H]1CN(C)S(=O)(=O)c1cccs1", "relative growth": "inactive: 0.994"}, {"smiles": "C[C@H]1CN([C@@H](C)CO)C(=O)c2cc(C#CCN(C)C)cnc2O[C@@H]1CN(C)S(=O)(=O)c1ccccc1", "relative growth": "inactive: 1.05"}, {"smiles": "C(=N\\c1nc2ccccc2[nH]1)/N(c1ccccc1)c1ccccc1", "relative growth": "inactive: 0.997"}, {"smiles": "O=C(CN1CCOCC1)N[C@@H]1CC[C@@H](CCn2cc(C3CCCC3)nn2)O[C@H]1CO", "relative growth": "inactive: 0.983"}, {"smiles": "COc1cccc(NC(=O)N2C[C@@H](O)COC[C@@H]3O[C@@H](CC(=O)NC4Cc5ccccc5C4)CC[C@H]32)c1", "relative growth": "inactive: 0.969"}, {"smiles": "C[C@@H]1CCCCO[C@H](CN(C)S(=O)(=O)c2cn(C)cn2)[C@@H](C)CN([C@H](C)CO)C(=O)c2cc(NC(=O)CCCN(C)C)ccc2O1", "relative growth": "inactive: 0.981"}, {"smiles": "Cc1ccc(S(=O)(=O)N(C)C[C@@H]2OCCCC[C@@H](C)Oc3ccc(NC(=O)Nc4cccc5ccccc45)cc3C(=O)N([C@H](C)CO)C[C@H]2C)cc1", "relative growth": "inactive: 1.03"}, {"smiles": "C[C@@H]1CN([C@@H](C)CO)C(=O)c2cc(NC(=O)Cc3ccccc3)ccc2O[C@@H](C)CCCCO[C@@H]1CN(C)C(=O)NC1CCCCC1", "relative growth": "inactive: 0.984"}, {"smiles": "COc1ccc(NC(=O)N(C)C[C@@H]2Oc3ccc(NC(=O)C4CC4)cc3C(=O)N([C@H](C)CO)C[C@@H]2C)cc1", "relative growth": "inactive: 1.01"}, {"smiles": "CN(C)C(=O)C[C@@H]1CC[C@@H](NC(=O)C2CCOCC2)[C@H](CO)O1", "relative growth": "inactive: 1"}, {"smiles": "COc1ccc(S(=O)(=O)Nc2cccc3c2O[C@@H](CN(C)S(=O)(=O)c2cccs2)[C@@H](C)CN([C@@H](C)CO)C3=O)cc1", "relative growth": "inactive: 1.01"}, {"smiles": "C[C@@H]1CN([C@@H](C)CO)C(=O)Cc2cc(NC(=O)Cc3ccccc3)ccc2O[C@@H]1CN(C)Cc1ccc(Cl)c(Cl)c1", "relative growth": "inactive: 0.988"}, {"smiles": "CCS(=O)(=O)Nc1ccc2c(c1)C(=O)N(C)C[C@H](OC)[C@H](C)CN(Cc1nccs1)[C@H](C)CO2", "relative growth": "inactive: 0.971"}, {"smiles": "O=C(O)CCC(=O)c1ccc(-c2ccccc2)cc1", "relative growth": "inactive: 1.03"}, {"smiles": "C=CC1=C(C(=O)O)N2C(=O)C(NC(=O)C(=NO)c3csc(N)n3)C2SC1", "note": "(stereo not given)", "relative growth": "active: 0.05"}, {"smiles": "C[C@H](CO)N1C[C@H](C)[C@@H](CN(C)Cc2ccc(Cl)c(Cl)c2)Oc2ccc(NC(=O)Nc3ccc(C(F)(F)F)cc3)cc2CC1=O", "relative growth": "inactive: 1.02"}, {"smiles": "O=C(C[C@H]1CC[C@H](NC(=O)Cc2ccccn2)[C@@H](CO)O1)NCCCN1CCOCC1", "relative growth": "inactive: 1.01"}, {"smiles": "Cc1ccc(S(=O)(=O)Nc2ccc3c(c2)CC(=O)N([C@H](C)CO)C[C@H](C)[C@H](CN(C)Cc2ccncc2)O3)cc1", "relative growth": "inactive: 0.981"}, {"smiles": "Cc1ccc(S(=O)(=O)N(C)C[C@H]2Oc3ccc(NS(C)(=O)=O)cc3C(=O)N([C@H](C)CO)C[C@@H]2C)cc1", "relative growth": "inactive: 0.977"}]}]}
